In patent US20200317802A1:

Molecular target: bovine recombinant ADAMTS5 (bovine)
Assay: KinExA, in solution; free 581 captured on human ADAMTS5 beads

B1: Nanobody construct 581 (2F3^SO-35GS linker-Alb11) (bispecific antibody)
chain: DVQLVESGGGVVQPGGSLRLSCAASGRTVSSYAMGWFRQAPGKEREFVAGISRSAERTYYVDSLKGRFTISRDNSKNTVYLQMNSLRPEDTALYYCAADLDPNRIFSREEYAYWGQGTLVTVSSGGGGSGGGGSGGGGSGGGGSGGGGSGGGGSGGGGS[gap - about 120 residues]
- Kd: 7.66 pM
